We go through 68 compounds from PubChem BioAssay AID488969 (Vanderbilt High Throughput Screening Facility, 2010).

Over roughly 110,000 compounds, “z-score” has its median near -0.1; the highest 2% begin near 2. Some of the results follow. The source made the active and inactive calls.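 How the source made its calls: active means z-score in the third read window above 3 or below -3; inactive means the rest.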

The target in this test is Metabotropic glutamate receptor 8 (Rattus norvegicus) (UniProt P70579). As to the kind of experiment: mGluR8 Gi/Go-coupled signaling modulation – cell-based, rat, thallium flux, HTS, primary screen (AID 488969). Particulars: HEK293 rat mGluR8, GIRK (G protein-gated inwardly rectifying potassium channel) thallium flux, FluoZin2; at 10 µM; stronger effect = higher value; submaximal glutamate (EC20) added with thallium.
UniProt P70579, sequence (P70579 whole entry, looked up): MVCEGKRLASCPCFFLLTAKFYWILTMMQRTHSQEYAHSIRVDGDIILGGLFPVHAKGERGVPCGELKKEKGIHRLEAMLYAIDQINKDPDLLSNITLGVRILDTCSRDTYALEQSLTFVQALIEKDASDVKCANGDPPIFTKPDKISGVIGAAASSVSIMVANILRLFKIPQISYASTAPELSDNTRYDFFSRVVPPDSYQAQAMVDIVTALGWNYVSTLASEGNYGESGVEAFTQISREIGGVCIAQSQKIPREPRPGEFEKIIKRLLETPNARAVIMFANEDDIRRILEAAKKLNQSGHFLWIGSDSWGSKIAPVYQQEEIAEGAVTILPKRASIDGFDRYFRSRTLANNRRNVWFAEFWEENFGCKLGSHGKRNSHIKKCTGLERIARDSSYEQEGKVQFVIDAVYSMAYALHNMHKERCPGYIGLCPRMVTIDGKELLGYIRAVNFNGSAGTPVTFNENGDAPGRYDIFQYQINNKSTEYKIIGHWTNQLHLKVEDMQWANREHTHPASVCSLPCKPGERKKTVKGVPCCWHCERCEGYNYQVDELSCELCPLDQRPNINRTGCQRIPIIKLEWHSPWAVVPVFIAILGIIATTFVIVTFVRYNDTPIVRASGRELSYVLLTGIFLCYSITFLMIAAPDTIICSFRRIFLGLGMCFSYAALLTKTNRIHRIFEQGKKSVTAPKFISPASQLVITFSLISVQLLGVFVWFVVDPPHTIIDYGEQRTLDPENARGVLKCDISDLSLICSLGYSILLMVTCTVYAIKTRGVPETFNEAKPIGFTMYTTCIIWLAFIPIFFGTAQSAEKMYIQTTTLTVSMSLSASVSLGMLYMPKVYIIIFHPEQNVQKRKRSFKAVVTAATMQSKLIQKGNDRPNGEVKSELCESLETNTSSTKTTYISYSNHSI
Compound `COc1ccc(-n2c(Cc3cc(=O)[nH]c(=O)[nH]3)nnc2SCc2ccccc2)cc1` gave a z-score of 0.0314.
In the case of `O=C(NC1CCCCCC1)c1cc(S(=O)(=O)N2CCC3(CC2)OCCO3)ccc1F`, the z-score came out at 0.381.
With `c1ccc(Oc2ncnc3oc(-c4ccccc4)cc23)cc1`, the z-score was 0.0157.
Compound `O=C(OCc1ccc2c(c1)OCO2)c1ccc(S(=O)(=O)N2CCCC2)cc1` displayed a z-score of 0.14.
Consider `COC(=O)Cn1cc(C(=O)OC)cc(Br)c1=O`, for which the z-score was -0.00723.
Under `Cc1ccc(S(=O)(=O)/N=C(/Nc2nc(C)cc(C)n2)N2CCOCC2)cc1` stands 0.338.
On to `CCOC(=O)c1c(NC(=O)C(C)NCc2ccco2)sc2c1CCC(C)C2` (stereo not drawn), for which the z-score is -0.244.
Then `CC(=O)Nc1ccc(S(=O)(=O)N2CCN(C)CC2)cc1`, with -0.00534; and `O=C(Nc1ccc(N2CCN(C(=O)c3ccco3)CC2)c(Cl)c1)c1cccs1`, with -0.455; and `CSc1nc2nc3c(c(=O)n2[nH]1)CCC3`, with -0.258.
On to `O=C(NC1CCCCC1)NC1CC2CCC(C1)N2C(=S)NCc1ccco1` (stereo not drawn), for which the z-score was -0.0389.
Turning to `CCN1CCN(S(=O)(=O)c2ccc(S(=O)(=O)N(CC)Cc3ccccc3)cc2)CC1`, the z-score is -0.171.
As to `C=CC[N+](C)(C)CC(=O)OCc1ccccc1`, the z-score is -0.186.
Turning to `CCn1c(C)c(C(C)=O)c(N2CCN(c3ccccn3)CC2)nc1=S`, the z-score was determined as 0.0199.
Then `O=C(COC(=O)CCOc1ccccc1)Nc1ccc(Cl)cn1`, with -0.197; and `CCOC(=O)c1c(C)[nH]c(N=Nc2cccc(C)c2)c1C`, with 0.255.
Turning to `CCOC(=O)Cc1c(C)c2c(O)cc(O)cc2oc1=O`, the z-score was -0.401.
`CCOC(=O)C1=C(CSc2nc3c(cc2C#N)CN(C)CC3)OC(N)=C(C#N)C1c1ccccc1` (stereo not drawn) came in with a z-score of 0.0291.
In turn, `CS(=O)(=O)N(CC(N)=O)c1cccc(Br)c1` registered a z-score of 0.22.
As to `Cc1csc(NC(=O)C(CC(C)C)NS(=O)(=O)c2ccc3c(c2)oc(=O)n3C)n1` (stereo not drawn), the z-score is 0.188.
Then `O=C(c1cnn2c(C(F)F)cc(-c3ccccc3)nc12)N1CCSCC1`, with -0.361; and `CCCCCn1c(CN2CCN(c3cccc(Cl)c3)CC2)nc2c1c(=O)n(C)c(=O)n2C`, with -0.0719; and `COc1cccc(/C=N\NC(=O)C2=NNC(=O)C2C)c1O` (stereo not drawn), with -0.139.
With `Cc1ccc(-c2cc(C(=O)NCC3CCCO3)c3ccccc3n2)o1` (stereo not drawn), the z-score is -0.185.
Under `Cc1cc(NC(=O)CSc2nc3c(c(-c4cccnc4)c2C#N)CCC3)no1` stands 0.0942; under `CCCCOc1ccc(C(=O)OC2CC(C)N(C)CC2C)cc1` (stereo not drawn), active: 3.48; under `C=C(C)CNC(=S)NNC(=O)c1ccc(Br)cc1`, 1.52.
Then `CC(C)(C)c1ccc(S(=O)(=O)Nc2ccc(Cc3ccncc3)cc2)cc1`, with 0.0193; and `Cc1cccc(-n2cccc2)c1C#N`, with -0.306; and `O=C(O)c1ccc(COc2ccc(/C=N/NC(=O)c3cccs3)cc2)cc1`, with -0.656.
Then `COc1ccc(NC(=O)CSc2nc(C)cc(C(F)(F)F)n2)cc1`, with 0.108; and `CCOC(=O)c1cnc2nc(NCc3ccc(OCc4ccccc4)cc3)[nH]n2c1=O`, with -0.297.
On to `COc1ccc(CCN(Cc2nc3ccccc3c(=O)[nH]2)C(=O)c2ccco2)cc1`, for which the z-score amounted to 0.0149.
On to `Cc1sc(-n2c(C)cc(C=O)c2C)c(C(=O)O)c1C`, for which the z-score was 0.137.
As to `CCOC(=O)c1cnc(-n2nc(C)cc2C)nc1NCc1ccc2c(c1)OCO2`, the z-score worked out at 0.347.
Then `Cc1cc(C(=O)Nc2ccccc2C#N)n(-c2ccccc2)n1`, with 1.15.
Then `Cc1ccc(S(=O)(=O)N2CCN(CC(=O)N/N=C\c3ccc(Cl)c([N+](=O)[O-])c3)CC2)cc1`, with -0.0326; and `COc1ccc(-c2nc3ccccc3c(=O)n2NC(=O)Cc2ccccc2)cc1`, with 0.0968.
Then `COc1ccc(-c2cc3ccccc3n2CC(O)CN2CCN(CCO)CC2)cc1` (stereo not drawn), with -0.753.
`CCOC(=O)C1CCCN(CCC(=O)Nc2ccc(C)cc2)C1` (stereo not drawn) came in with a z-score of 0.774.
`O=c1c2c3nc4ccccc4nc3n(Cc3ccccc3)c2ncn1Cc1ccco1` yielded a z-score of 0.0939.
Then `CCOC(=O)c1sc(Nc2nc3c(F)cccc3s2)cc1C`, with 0.23.
Compound `CC(C)NC(=O)CC(=O)N/N=C/c1ccc(Br)cc1` registered a z-score of 0.688.
Under `CS(=O)(=O)c1cc([N+](=O)[O-])c(Sc2nc3ccccc3[nH]2)c([N+](=O)[O-])c1` stands -0.469; under `Cc1cccc(-n2nc3c([n+]2[O-])CCc2nonc2-3)c1C`, -0.912; under `O=C(NCc1ccco1)c1cc2nc(C3CC3)cc(C(F)(F)F)n2n1`, -0.797.
For `Cc1ccc(NC(=O)c2c(C)nn(-c3ccccc3)c2Cl)cc1`, the z-score was -0.247.
As to `COC(=O)c1ccc(N2CCN(S(=O)(=O)c3ccc4ccccc4c3)CC2)c([N+](=O)[O-])c1`, the z-score was -0.111.
As to `CCn1c2ccccc2c2nnc(SCC(=O)N(C)C3CCS(=O)(=O)C3)nc21` (stereo not drawn), the z-score was -0.188.
Under `CCOC(=O)C(/C=C(\C#N)C(=O)OCC)=C(/N)N1CCN(c2ccc(OC)cc2)CC1` stands 0.803; under `Cc1cc(NC(=O)c2cc(-c3ccco3)on2)no1`, 0.16; under `CC(C)NS(=O)(=O)c1ccc(OCC(=O)NCc2ccccc2)cc1`, 0.622.
For `COC(=O)c1cc2c(-c3ccccc3)cc3ccccn3c-2c1C(=O)OC`, the z-score was determined as 1.15.
`O=C1c2ccccc2-c2nnc(-c3ccccc3)cc21` yielded a z-score of 0.248.
For `O=C(NCC(c1cccnc1)N1CCN(c2ccc(F)cc2)CC1)c1ccc(F)cc1` (stereo not drawn), the z-score amounted to 0.0352.
Under `CSc1nc2ccc(S(=O)(=O)Nc3c(C)n(C)n(-c4ccccc4)c3=O)cc2s1` stands -0.599; under `CCOC(=O)Cn1c(=O)oc2cc(S(=O)(=O)N(C)Cc3ccco3)ccc21`, 0.193; under `O=C(Nc1nc(-c2ccc(S(=O)(=O)N3CCCC3)cc2)cs1)C1COc2ccccc2O1` (stereo not drawn), -0.431.
Then `Cc1ccc2nc3c(cc2c1)CN(Cc1ccco1)C(=NCC1CCCO1)S3` (stereo not drawn), with 0.693.
Under `CCOC(=O)N1CCN(C(=O)CN(c2ccc(OC)c(OC)c2)S(C)(=O)=O)CC1` stands -0.034.
For `O=C1C2C3C=CC([C@@H]2C(=O)N1C1CCCCC1)[C@H]1C(=O)N(C2CCCCC2)C(=O)C31` (stereo partly drawn), the z-score is -0.00981.
Under `CN(C)S(=O)(=O)N1CCN(Cc2ccccc2)CC1` stands 0.117; under `CC1CCCN(CCC(=O)c2ccc(Br)cc2)C1` (stereo not drawn), -0.844.
Then `O=C(Nc1cc2c(oc1=O)CCCC2=O)c1ccccc1`, with -0.273.
With `Cc1cc(=O)n2[nH]c(-c3ccccc3Cl)cc2n1`, the z-score was -0.0492.
The compound `Cc1cccc(NC(=S)NNC(=O)c2nn(C)cc2Cl)c1` had a z-score of 0.00471.
For `CC1=NN(Cc2ccccc2)C(=O)C1C(c1ccccc1)C(C#N)C#N` (stereo not drawn), the z-score is -0.147.
In turn, `O=C(CCCN1C(=O)C2CCCCN2C1=O)N1CCN(c2ccc([N+](=O)[O-])cc2)CC1` (stereo not drawn) showed a z-score of 0.169.
